Test results published in paper PMC11958677.
These are yes or no findings as the source states them, for the method shown. Binding seen in cells or lysates may run through a third protein. Some binding calls cover weakened binding; strength is not graded here. One block for each substance: values may come before it.

Sequences of proteins named here, by UniProt entry; tags and fusion partners are left off. A change or cut given only in a name is not applied to a line headed by its entry. Residues count along the entry.
UniProt P12004: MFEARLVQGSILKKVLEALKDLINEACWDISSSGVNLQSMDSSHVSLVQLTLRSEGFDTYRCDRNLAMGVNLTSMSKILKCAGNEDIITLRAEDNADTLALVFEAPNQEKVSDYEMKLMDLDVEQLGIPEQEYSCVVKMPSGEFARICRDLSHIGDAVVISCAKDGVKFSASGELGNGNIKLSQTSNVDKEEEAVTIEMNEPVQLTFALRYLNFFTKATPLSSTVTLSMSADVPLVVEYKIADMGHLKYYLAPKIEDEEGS
UniProt Q15843, residues 1-76: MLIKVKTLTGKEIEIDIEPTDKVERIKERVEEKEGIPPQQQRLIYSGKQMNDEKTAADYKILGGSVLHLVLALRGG
UniProt Q9Y5A7: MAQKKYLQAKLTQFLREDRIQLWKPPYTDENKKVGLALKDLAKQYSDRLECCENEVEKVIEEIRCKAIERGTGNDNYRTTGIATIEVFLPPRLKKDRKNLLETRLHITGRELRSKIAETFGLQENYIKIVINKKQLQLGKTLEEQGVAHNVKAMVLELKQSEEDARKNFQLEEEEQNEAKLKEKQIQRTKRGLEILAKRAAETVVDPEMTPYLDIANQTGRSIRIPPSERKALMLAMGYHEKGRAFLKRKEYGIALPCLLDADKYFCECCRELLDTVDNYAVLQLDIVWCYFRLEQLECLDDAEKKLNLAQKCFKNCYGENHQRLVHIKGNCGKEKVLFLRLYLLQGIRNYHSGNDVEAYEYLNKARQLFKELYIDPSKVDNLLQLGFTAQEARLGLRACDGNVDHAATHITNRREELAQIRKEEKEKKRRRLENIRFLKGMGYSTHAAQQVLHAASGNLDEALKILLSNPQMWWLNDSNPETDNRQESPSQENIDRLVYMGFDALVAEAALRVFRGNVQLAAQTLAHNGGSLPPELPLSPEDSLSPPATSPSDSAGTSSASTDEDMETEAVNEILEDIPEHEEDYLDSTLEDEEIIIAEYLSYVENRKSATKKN

Legend:
[1] = biological target: PCNA, in the GST pull-down experiments (UniProt P12004); assay: pull-down; GST pull-down competition: increasing amounts of His-NEDD8 or of Ub added; complexes with PCNA detected (Fig. 5G)
[2] = biological target: HA-PCNA (wild-type plasmid of PCNA) (UniProt P12004); assay: co-IP; HA-PCNA or HA-PCNA K164R transfected into HCCLM3 and MHCC97H cells (stably expressing His-NEDD8, blank vector or shNEDD8); immunoprecipitation with anti-HA, immunoblot
[3] = biological target: HA-PCNA K164R (mutant plasmid of PCNA at the lys164 site) (UniProt P12004); assay: as above
[4] = biological target: PCNA, in the GST pull-down experiments (UniProt P12004); assay: pull-down; GST pull-down of NUB1 and PCNA, HCCLM3 and MHCC97H cells (Supplementary Fig. 2B); which protein carried GST not told
[5] = biological target: Proliferating cell nuclear antigen (PCNA), endogenous (human (endogenous in HCCLM3 and MHCC97H)) (UniProt P12004); assay: co-IP; total cell lysates of HCCLM3 and MHCC97H cells; primary antibody and Protein A/G PLUS-Agarose 12 h at 4 °C, three washes with lysis buffer, immunoblot (Supplementary Fig. 2A)
[6] = biological target: Proliferating cell nuclear antigen (PCNA), endogenous (human (endogenous in HCCLM3 and MHCC97H)) (UniProt P12004); assay: co-IP; endogenous NEDD8 and PCNA in HCCLM3 and MHCC97H cell lysates; primary antibody and Protein A/G PLUS-Agarose 12 h at 4 °C, immunoblot

Substance: His-NEDD8, stably expressed in HCC cells (from UniProt Q15843 1-76)
binding [2]: binds
binding [3]: no binding

Substance: Negative regulator of ubiquitin-like protein 1 (NUB1), in the co-IP with PCNA (from UniProt Q9Y5A7 1-615)
binding [5]: no binding

Substance: Neural precursor cells expressed developmentally downregulated 8 (NEDD8), endogenous (from UniProt Q15843 1-76)
binding [6]: binds
binding [3]: no binding

Now from value to substance:

binding [1]: binds
Substance: His-NEDD8, added in the GST pull-down competition (from UniProt Q15843 1-76)

binding [4]: no binding
Substance: NUB1, in the GST pull-down with PCNA (from UniProt Q9Y5A7 1-615)
